{
  "source": "patent US8263079B2",
  "about": "“Antibodies against CSF-1R” (ImClone, LLC, priority 2010, dated 2012)",
  "molecules": {"B1": {"name": "Antibody 1: fully human IgG1 antibody recognizing human CSF-1R; heavy chain SEQ ID NO:9, light chain SEQ ID NO:10 (antibody)", "heavy": "QDQLVESGGGVVQPGRSLRLSCAASGFTFSSYGMHWVRQAPGEGLEWVAVIWYDGSNKYYADSVKGRFTISRDNSKNTLYLQMNSLRAEDTAVYYCARGDYEVDYGMDVWGQGTTVTVASASTKGPSVFPLAPSSKSTSGGTAALGCLVKDYFPEPVTVSWNSGALTSGVHTFPAVLQSSGLYSLSSVVTVPSSSLGTQTYICNVNHKPSNTKVDKRV[human IgG1 Fc skipped]", "light": "AIQLTQSPSSLSASVGDRVTITCRASQGISNALAWYQQKPGKAPKLLIYDASSLESGVPSRFSGSGSGTDFTLTISSLQPEDFATYYCQQFNSYPWTFGQGTKVEIKRTVAAPSVFIFPPSDEQLKSGTASVVCLLNNFYPREAKVQWKVDNALQSGNSQESVTEQDSKDSTYSLSSTLTLSKADYEKHKVYACEVTHQGLSSPVTKSFNRGEC"}},
  "key": {"Akt and MAPK": {"tested_on": "Akt and MAPK", "test": "Phosphorylation of downstream Akt and MAPK by Western blot in NIH3T3 cells stably transfected with CSF-1R", "assay_type": "cell-based", "settings": "cells incubated with 100 nM to 1 nM antibody; CSF-1 or IL-34 pathway", "experimental": "Seed NIH3T3 cells stably transfected with CSF-1R cells in a 12-well plate at a density of 5×10^5 cells/well in 1 mL well of Dulbecco's Modified Eagles Medium (DMEM) containing 10% fetal bovine serum (FBS) and 1 mg/mL geneticin for 5 hours. Wash monolayers twice in PBS and culture overnight in 0.9 mL/well DMEM with 1% FBS. […] Stimulate cells with 100 ng/mL CSF-1 or IL-34 ligand for 10 minutes and then place on ice and wash with ice-cold PBS. Lyse the cells in 100 μL of 50 mM Hepes (pH 7.5 150 mM NaCl, 0.5% Triton X-100, 1 mM Na3VO4, 10 mM NaPPi, 50 mM NaF) and tablet of protease inhibitors (Roche) on ice for 10 minutes. Clarify the lysed cells by centrifugation at 4° C. Load 20 μL lysate on a denaturing electrophoresis gel and blot onto a nitrocellulose membrane. Detect tyrosine-phosphorylated CSF-1R on the blot by using an anti-phosphoCSF-1R antibody at 1 μg/mL (Cell Signaling). Determine CSF-1R signaling by probing the blot with either anti-phospho-MAPK (1:500 dilution) or anti-phopho-Akt (1:1000) (Cell Signaling). To insure equal loading of the lanes, probe blots with anti-CSF-1R antibodies (1 μg/mL; R&D Systems) or anti-actin antibodies (1:2000; Sigma). Incubate all primary antibodies with rocking for 1 hour at RT; followed by the corresponding secondary antibody conjugated with HRP, also with rocking for 1 hour at RT. Visualize bands with a chemiluminescence reagent (GE Healthcare)."}, "monocytes [1]": {"tested_on": "monocytes", "test": "Macrophage differentiation by CSF-1", "assay_type": "cell-based", "experimental": "(§1) Seed monocytes (Lonza) at a density of 4×10^5 cells/mL in each chamber of an 8-chamber slide in 900 μL Roswell Park Memorial Institute (RPMI) 1640 media containing 10% FBS and 100 ng/mL hCSF-1. […] Incubate at 37° C., changing media every three days until monocytes are visibly seen to adhere to the plate and elongate, which is characteristic of macrophage differentiation."}, "NKM-1 leukemia cells [2]": {"tested_on": "NKM-1 leukemia cells", "test": "Proliferation assay for tumor cell line with CSF-1", "assay_type": "cell-based, human", "settings": "20 ng/mL CSF-1, 3 days", "experimental": "Seed NKM-1 leukemia cells at 1×10^4 cells/mL in 100 μL RPMI 1640 media containing 1% FBS in a 96 well plate overnight. […] Incubate for an additional 3 days at 37° C. Upon addition of 100 μL of CellTiter Glo Luminecent buffer and substrate (Promega), shake cells for 10 minutes before reading luminescence (as an indicator of viability)."}, "monocytes [3]": {"tested_on": "monocytes", "test": "Macrophage differentiation by IL-34", "assay_type": "cell-based", "experimental": "as §1, with “hIL-34.” for “hCSF-1.”"}, "monocytes [4]": {"tested_on": "monocytes", "test": "Monocyte proliferation by CSF-1 (CellTiter Glo)", "assay_type": "cell-based", "settings": "100 ng/mL CSF-1", "experimental": "(§2) Seed monocytes (Lonza) at a density of 3000 cells/well in a 96-well plate in the presence of RPMI 1640 media containing 10% FBS and 100 ng/mL CSF-1. […] Exchange media for fresh media containing 10% FBS, 100 ng/mL CSF-1, and antibody three days later and allow cells to grow an additional 5 days. Upon addition of 100 μL of CellTiter Glo Luminescent buffer and substrate (Promega), shake cells for 10 minutes and read luminescence as an indicator of viability."}, "[5]": {"tested_on": "NKM-1 human leukemia cells", "test": "Antibody-dependent cell-mediated cytotoxicity (ADCC) with human NK cells", "assay_type": "cell-based", "settings": "antibody concentration 1 μg/mL, 4 hours", "experimental": "NKM-1 human leukemia cells are seeded at 2×10^5 cells/mL in 25 μL RPMI media containing 10% Ultra-Low IgG FBS and 3 ng/mL of human IL-2 in a 96 well plate. […] After a 15 minute incubation, seed 25 μL of 3×10^6 cells/mL human NK cells (Lonza) and incubate for an additional four hours at 37° C. Add 10 μL of Lysis Buffer from aCella-TOX kit (Cell Technology) and bring to RT for 15 minutes. Add 125 μL of low IgG FBS and centrifuge plates for 1 minute at 750×g. In Optiplates (Perkin Elmer), add 50 μL Enzyme Assay Diluent from aCella-TOX kit and carefully transfer 50 μL of cell supernatant to Optiplates. Prepare enzyme assay reagent and detection reagent according to kit instructions, adding 100 μL enzyme assay reagent immediately followed by 50 μL of detection reagent to Optiplates. Read plates in luminometer 20 minutes after reagents are added."}, "NKM-1 leukemia cells [6]": {"tested_on": "NKM-1 leukemia cells", "test": "Survival of NKM-1 human leukemia-bearing mice", "assay_type": "in vivo, mouse", "settings": "Human IgG control 35 days, P<0.0001", "experimental": "Irradiate Nu/nu mice sublethally with 200 rads/mouse 24 hours before intravenous injection with 2.5×10^6 NKM-1 leukemia cells. […] Monitor mice daily for survival. Determine P values by log rank Mantel Cox test."}, "monocytes [7]": {"tested_on": "monocytes", "test": "Monocyte proliferation by IL-34 (CellTiter Glo)", "assay_type": "cell-based", "settings": "read-out: IC50 inhibiting 50% of monocyte growth; 100 ng/mL IL-34", "experimental": "as §2, with “IL-34.” for “CSF-1.”, “IL-34,” for “CSF-1,”, “Luminecent” for “Luminescent”"}},
  "note": "Like-named read-outs stand apart in the source and are kept apart here.",
  "data": [
    {"molecule": "B1", "values": [
      {"measurement": "Akt and MAPK phosphorylation", "setting": "Akt and MAPK", "result": "decreased phosphorylation levels"},
      {"measurement": "IC50", "setting": "monocytes [1]; 100 ng/mL hCSF-1, read-out: IC50, CSF-1 induction of monocyte to macrophage differentiation", "result": 0.25, "unit": "nM"},
      {"measurement": "concentration at which monocytes fail to differentiate into macrophages", "setting": "monocytes [1]; in the presence of CSF-1", "result": "≥ 2", "unit": "nM"},
      {"measurement": "IC50", "setting": "NKM-1 leukemia cells [2]; read-out: IC50 for NKM-1 growth", "result": 0.076, "unit": "nM"},
      {"measurement": "IC50", "setting": "NKM-1 leukemia cells [2]; read-out: IC50 for NKM-1 growth, reported as", "result": 0.07, "unit": "nM"},
      {"measurement": "IC50", "setting": "monocytes [3]; 100 ng/mL hIL-34, read-out: IC50, IL-34 induction of monocyte to macrophage differentiation", "result": 0.3, "unit": "nM"},
      {"measurement": "concentration at which monocytes fail to differentiate into macrophages", "setting": "monocytes [3]; in the presence of IL-34", "result": "≥ 2", "unit": "nM"},
      {"measurement": "IC50", "setting": "monocytes [4]; read-out: IC50 inhibiting 50% of monocyte growth, reported as", "result": 0.1, "unit": "nM"},
      {"measurement": "IC50", "setting": "monocytes [4]; read-out: IC50 inhibiting 50% of monocyte growth", "result": 0.14, "unit": "nM"},
      {"measurement": "NKM-1 cells killed (ADCC)", "setting": "[5]", "result": 9, "unit": "%"},
      {"measurement": "Median survival", "setting": "NKM-1 leukemia cells [6]; 5 mg/kg twice weekly", "result": 55, "unit": "days"},
      {"measurement": "Median survival", "setting": "NKM-1 leukemia cells [6]; 20 mg/kg twice weekly", "result": 46, "unit": "days"},
      {"measurement": "Median survival", "setting": "NKM-1 leukemia cells [6]; 60 mg/kg twice weekly", "result": 46, "unit": "days"},
      {"measurement": "IC50", "setting": "monocytes [7]", "result": 0.5, "unit": "nM"}
    ]}
  ]
}
